Publication PMC4336329 (PLoS ONE, 2015)
Out of some 310,000 compounds screened, about 2,200 (0.71%) showed an effect of 50% or more. The effect is printed as a negative number. This is one part of the list.

Each compound was assayed against human ether-à-go-go-related gene (hERG) potassium channel (human, UniProt Q12809) (assay: primary screen, population patch clamp on CHO cells stably expressing hERG).
human ether-à-go-go-related gene (hERG) potassium channel, sequence (Q12809 whole entry, looked up): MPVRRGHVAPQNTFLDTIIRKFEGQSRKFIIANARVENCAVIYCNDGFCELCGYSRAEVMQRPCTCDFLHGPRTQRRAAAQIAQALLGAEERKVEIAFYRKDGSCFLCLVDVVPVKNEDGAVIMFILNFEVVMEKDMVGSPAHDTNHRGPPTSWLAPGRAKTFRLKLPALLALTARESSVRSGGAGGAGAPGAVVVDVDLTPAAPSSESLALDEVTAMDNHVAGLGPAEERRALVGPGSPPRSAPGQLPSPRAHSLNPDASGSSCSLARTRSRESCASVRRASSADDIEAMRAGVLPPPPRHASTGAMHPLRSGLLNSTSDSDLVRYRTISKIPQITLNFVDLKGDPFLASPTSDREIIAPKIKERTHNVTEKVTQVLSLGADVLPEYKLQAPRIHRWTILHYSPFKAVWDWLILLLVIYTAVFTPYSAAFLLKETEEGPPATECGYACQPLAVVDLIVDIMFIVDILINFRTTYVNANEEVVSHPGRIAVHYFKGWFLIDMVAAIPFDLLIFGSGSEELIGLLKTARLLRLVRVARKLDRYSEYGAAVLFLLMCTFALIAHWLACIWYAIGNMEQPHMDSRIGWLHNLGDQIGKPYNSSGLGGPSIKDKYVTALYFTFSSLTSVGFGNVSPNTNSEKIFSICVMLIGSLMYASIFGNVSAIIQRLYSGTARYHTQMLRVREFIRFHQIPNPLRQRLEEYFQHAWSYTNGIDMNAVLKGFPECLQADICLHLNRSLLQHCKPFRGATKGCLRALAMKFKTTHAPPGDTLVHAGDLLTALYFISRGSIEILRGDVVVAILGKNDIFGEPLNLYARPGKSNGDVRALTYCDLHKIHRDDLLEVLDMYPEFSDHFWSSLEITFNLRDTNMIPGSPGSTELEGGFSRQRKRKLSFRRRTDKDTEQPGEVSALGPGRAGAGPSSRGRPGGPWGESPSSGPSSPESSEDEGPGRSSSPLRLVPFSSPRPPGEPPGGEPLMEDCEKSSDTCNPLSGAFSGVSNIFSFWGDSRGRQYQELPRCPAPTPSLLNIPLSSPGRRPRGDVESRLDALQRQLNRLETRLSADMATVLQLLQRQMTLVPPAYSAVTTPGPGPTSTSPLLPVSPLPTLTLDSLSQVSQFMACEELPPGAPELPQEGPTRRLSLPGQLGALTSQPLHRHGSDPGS

SMILES | hERG current change (%, negative = inhibition) at 1uM [%]
CC(C)(C)OC(=O)N1CCN(C(=O)c2[nH]cnc2C(=O)NCc2ccccc2)CC1 | 3.57
O=C(NCc1ccc(F)cc1)c1ccncc1 | 12.9
COCCCn1c(SCC(=O)N2CCOCC2)nnc1-c1ccco1 | 16.1
Cc1ccccc1-c1nc2sc(C)c(C)c2c(=O)o1 | 15.7
CCOc1cccc(-c2c(C(=O)N/N=C/c3ccoc3)nnn2-c2nonc2N)c1 | 20.1
COc1nc(Nc2cccc([N+](=O)[O-])c2)nc(OC)n1 | 11.8
Cc1ccc(C(=O)N/C(=C\c2ccc(-c3cc(Cl)ccc3Cl)o2)C(=O)NCc2cccnc2)cc1 | 5.35
COc1ccc(OC)c(NC(=O)C2CCN(S(C)(=O)=O)CC2)c1 | 21.3
O=C(COc1ccccc1)N1CCN(c2ccccc2)CC1 | 5.65
O=C1C(=O)N(CCN2CCOCC2)C(c2ccccn2)/C1=C(/O)c1ccc(F)cc1 (centres unmarked) | -3.35
Cc1cccc(-n2nnnc2SC(C)C(=O)NCCC2=CCCCC2)c1 (centres unmarked) | 3.1
CC(=O)Nc1ccc(NC(=O)CCC(=O)OCC(=O)c2ccc(C)c([N+](=O)[O-])c2)cc1 | 10.8
O=C(Nc1ccccc1)N(CCCN1CCOCC1)Cc1ccccc1F | -3.99
Cc1nc2ccccc2c2oc(C(=O)N3CCC(N4CCCCC4)CC3)cc12 | -12.3
COc1ccc(N(CC(C)C)S(=O)(=O)c2nnc(NC(=O)CC(C)C)s2)cc1 | 16
Cc1cc(C)c(S(=O)(=O)c2cccc(Cl)c2)c(=O)[nH]1 | 11.3
CC1CCCCC12NC(=S)N(c1ccccc1)N2 (centres unmarked) | 11.3
CCCn1c(C)nnc1SCC(=O)NC1CCCCC1 | 16.6
O=C(Nc1ccc2[nH]c(=O)[nH]c2c1)c1cc(F)c(F)cc1Cl | 13.6
Cc1cc(=O)oc2cc(NC(=O)Cc3ccccc3[N+](=O)[O-])ccc12 | 14
Cc1ccc(C(=O)C2=C(O)C(=O)N(c3ncccn3)C2c2ccccc2F)o1 (centres unmarked) | 23.9
Cc1ccc(-c2nnn(CC(=O)N(Cc3ccccc3)C(C(=O)NC3CCCC3)c3ccncc3)n2)o1 (centres unmarked) | -2.99
O=C(CNC(=O)N1CC(=O)Nc2ccccc21)NCCc1cccc(F)c1 | 22.7

SMILES | hERG current change (%, negative = inhibition) at 1uM [%]
Cc1cccc(NC(=O)Cn2c(=O)n(Cc3ccco3)c(=N)c3c4c(sc32)COC(C)(C)C4)c1 | 3
O=C(Nc1nnc(SCc2ccc(F)cc2)s1)c1ccc2c(c1)C(=O)N(c1ccccc1Cl)C2=O | 21.4
CCCOc1c(Br)cc(C(=O)OCC(=O)NC(=O)c2cccn2C)cc1OC | 12.6
CCCCNC(=O)C1CCC(=O)N1CCc1ccccc1 (centres unmarked) | 15
COc1cccc(N/C(SC)=C(/C#N)C(N)=O)c1 | 2.6
COC(=O)CNC(=O)CSc1nnc(-c2ccc(OC)cc2)n1CC(C)C | 10.2
CCCCCn1c(CN2CCCCC2C)nc2c1c(=O)n(C)c(=O)n2C (centres unmarked) | -6.71
CCOC(=O)c1cccc(OCC(O)CNCCOc2ccccc2F)c1 (centres unmarked) | -4.08
Cc1cc(C)nc(N/N=C/c2cc(C)n(CC(F)(F)F)c2C)n1 | 7.32
CCC(=O)c1ccc2c(c1)OCCO2 | 11.9
O=C(CSc1nnc(NC(=O)c2ccco2)s1)Nc1cccc(F)c1 | -2.93
O=C(O)CSc1nnc(-c2cccnc2)n1Cc1ccccc1 | 12.8
CCn1c(CNC(=O)c2ccc(OC)c(OC)c2)nnc1SCC(=O)c1ccc(OC)cc1 | 6.52
CC(C)CSc1nnc2c3ccccc3n(C)c2n1 | -14.6
CCCn1nc(C(=O)NCC(C)(C)N2CCOCC2)c2ccccc2c1=O | -4.97
C[C@@H](NC(=O)c1nc[nH]c1C(=O)NC1CCN(C(=O)OC(C)(C)C)CC1)c1ccccc1 | 12.9
O=C(NCCCN1CCCCC1)c1ccc2c(c1)ncn2C1CCCC1 | 12.6
Fc1ccc(SCCc2cccc[nH+]2)cc1.O=P([O-])(O)O | 10.6
CCN(C(=O)COc1ccccc1)C1CCCCC1 | 2.31
Cc1ccccc1Nc1nc(N)nc(CSCc2c(C)noc2C)n1 | 10.1
CC(NC(=O)C1CCCN(S(=O)(=O)c2cnc[nH]2)C1)c1ccccc1 (centres unmarked) | -3.11
Cc1ncc(CN2CCCC(C(=O)Nc3ccc(-c4cccc(F)c4)cc3)C2)n1C (centres unmarked) | -20.9
Cc1ccc(S(=O)(=O)CCC(=O)OCC(=O)c2c(N)n(CC(C)C)c(=O)n(C)c2=O)cc1 | -18.9

SMILES | hERG current change (%, negative = inhibition) at 1uM [%]
O=c1cc(N2CCN(c3ccccc3)CC2)[nH]c(=O)n1-c1ccccc1 | 4.33
O=C(CCNS(=O)(=O)c1ccccc1C(F)(F)F)N1CCN(S(=O)(=O)c2cccc(F)c2)CC1 | 10.2
CCOn1c(=O)c(-c2cc(OC)ccc2OC)[n+]([O-])c2ccccc21 | 8.96
Cc1c(NC(=O)N2CCCCCC2)c(=O)n(-c2ccccc2)n1C | 17.9
Cc1cc(C)nc(N2CCCC(C(=O)Nc3cc(F)ccc3C)C2)n1 (centres unmarked) | 3.08
Cc1oc(-c2cccc(F)c2)nc1CN1CCCCC1CCc1ccccn1 (centres unmarked) | -89.5
CS(=O)(=O)Nc1ccccc1Oc1ccccc1 | 13.1
Cc1nc2c3ccccc3nc(NNC(=O)CCC(=O)NC(C)C)n2n1 | 11.6
CCCCn1nnnc1NCc1ccc(OC)c(OC)c1OC | -0.552
CC(=O)O.CC(C)CC1NC(C(=O)O)Cc2c1[nH]c1ccccc21 (centres unmarked) | 15.5
Cc1ccc(CC2S/C(=N/c3ccccn3)NC2=O)cc1 (centres unmarked) | 14.3
COc1ccc(NC2CCCN(C(=O)CCc3ccccc3F)C2)cc1 (centres unmarked) | 6.54
Br.CCN1C2=NCCCN2c2cc(C)c(C)cc21 | -11.9
CCn1c(CNC(=O)c2ccc3c(c2)OCO3)nnc1SCC(=O)Nc1ccccc1F | 11.6
CCOC(=O)c1c(NC(=O)CN2CCN(C(=O)C3CCCO3)CC2)sc(C)c1C (centres unmarked) | 0.855
CCOC(=O)N1CCC(N(CCOC)C(=O)Nc2ccc(C)c(C)c2)CC1 | -6.93
O=C(NCCCN1CCOCC1)c1sc2cc([N+](=O)[O-])ccc2c1Cl | -5.26
CCOc1cc(/C=C2\C(=O)N(c3cccc(C(=O)O)c3)N=C2C(F)(F)F)ccc1OCC(=O)Nc1ccccc1OC | 12.3
OCC1(CCc2ccccc2)CCN(Cc2cnc(N3CCCC3)s2)CC1 | -32.2
Cc1ccccc1Nc1nc(N)nc(CSc2n[nH]c(N)n2)n1 | 14.9
CN(C(=O)CCN1C(=O)/C(=C/c2ccccc2)SC1=S)C1CCS(=O)(=O)C1 (centres unmarked) | 9.13
C=CCN(C(=O)CNS(=O)(=O)c1ccccc1)C(C(=O)NCCOC)c1cccnc1 (centres unmarked) | 2.54
O=C1C(CSCc2ccccc2)NC(=S)N1c1ccccc1 (centres unmarked) | 7.16

SMILES | hERG current change (%, negative = inhibition) at 1uM [%]
CCOc1ccc(C(=O)N2CCn3c2nc2ccccc23)cc1 | 11
O=C(Nc1ccc2c(c1)OCO2)c1ccc(Cl)c(S(=O)(=O)N2CCOCC2)c1 | -5.6
Cc1csc2nc(O)c(C(=O)NCCC3=CCCCC3)c(=O)n12 | 6.1
COc1ccc(NC(=O)C2CC2)cc1-n1cnnn1 | 8.86
CC(=O)Nc1ccc(NC(=O)C2CCCN2C(=O)NCc2ccccc2)cc1 (centres unmarked) | 17.1
CCOP(=O)(c1ccccc1)c1nc(-c2ccccc2C)oc1NCc1ccccc1 (centres unmarked) | 12.1
CCC1CCCCN1CCCNC(=O)c1c(O)nc2cc(C)ccn2c1=O (centres unmarked) | 4.81
CCOc1ccc(C(=O)NCC(=O)OCc2nnc(-c3ccccc3)o2)cc1OCC | 1.47
CC(c1ccccc1)n1cc(C(=O)NCC2COc3ccccc3O2)nn1 (centres unmarked) | 11
COc1ccc(-c2c(C)nn3c(N)c(C#N)cnc23)cc1OC | 14.1
COc1cc(/C=C2/C(=O)NC(=O)N(c3ccc(C)cc3)C2=O)cc(OC)c1OC | 11.4
Cc1nnc2n1N=C(c1ccc(OC(F)F)cc1)C(C)S2 (centres unmarked) | -2.36
COc1ccc(Nc2nc(-c3ccccc3F)nc3ccccc23)cc1OC | 10.6
CN(C)S(=O)(=O)c1cccc(C(=O)NC(=S)N(CCC#N)Cc2cccnc2)c1 | 2.57
CCCCNC(=O)NC1CCCC1 | 13.4
COc1ccc(CCNC(=O)C(=O)NCC2OCCN2C(=O)c2ccc(Cl)cc2)cc1 (centres unmarked) | 6.48
COc1cc(S(=O)(=O)N2CCN=C2c2ccccc2)ccc1Cl | 10.7
c1nc2ccc(Cc3ccc4nc[nH]c4c3)cc2[nH]1 | 8.71
CCc1cc2c(=O)n(Cc3ccccc3)c(SC3CCOC3=O)nc2s1 (centres unmarked) | -24.2
O=C(Oc1ccc2c(c1)C(=O)c1ccccc1CO2)c1ccccc1 | 6.3
